Over roughly 16,000 sequences, “Z-score” has its median near -0.37; the highest 2% begin near 3.2. Some of the results follow.
System: RBM10 RRM1-ZnF (GST-tagged construct)
Assay: RNAcompete 7-mer binding Z-score; higher = stronger binding preference
Outline: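 A designed pool of 241 399 RNAs, each up to 41 nt and transcribed from microarray-derived DNA templates, was used at 1.5 nmol with 20 pmol of GST-tagged RBM10 constructs. The mixture, in 1 ml Hepes pH 7.8 buffer with KCl, NaCl, glycerol, DTT, BSA and glutathione Sepharose beads, was held 30 min at 4°C and then washed four times for 2 min at 4°C. Bound RNA was read out by microarray hybridisation, and enrichment of each heptamer motif was scored as a one-sided Z-score over the probes carrying it.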

Sequence | RNAcompete 7-mer binding Z-score
CGCUGUU | -0.617
ACUAGGG | 2.03
UGUGAAU | 0.0723
UUCAGUU | -0.675
AUUGGCG | 1.12
UUUUCCA | -0.772
UACAUUC | -0.795
CAGCCCU | -0.766
GCCUGGU | -0.227
AAAAGGC | 0.579
AGUGUUA | -0.035
GGGUGUA | 3.43
GGAUAUG | 2.73
AGGAUGU | 1.18
AGACGAC | -0.526
CGGAGAA | 1.36
GAGUUAU | 0.00404
CCGGAUG | 0.413
CCCACGU | -0.516
AUCGUGU | -0.399
AGCGCGA | -0.24
AUUCGUG | -0.227
ACGACGU | -0.418

Sequence | RNAcompete 7-mer binding Z-score
AUGUGCC | -0.506
ACAGCAC | -0.405
CGCCUUC | -0.808
GGCGCUC | -0.142
AAAGUAA | 0.14
GACUAGG | 1.41
UUUAGGG | 1.65
UCCAUUG | -0.73
AUUGCUC | -0.717
CCACACU | -0.668
UCGGUUC | -0.451
CCCCCAG | -0.132
GAUUGUU | -0.162
GCCCAAG | -0.236
AUUACCC | -0.805
GCUCGUG | -0.103
ACCGCAA | -0.795
GGGGGUC | 2.18
ACAUUUU | -0.893
CUAAAGG | 0.566
GGGGGAC | 2.25
CAGGGAU | 2.36
ACCCAGA | -0.587

Sequence | RNAcompete 7-mer binding Z-score
AAGAAGU | 0.644
UCACGAC | -0.552
AGGACCG | -0.165
GUUUUAG | 0.157
ACAACUA | -0.467
GCGGUGU | 1.1
UUCCCAC | -0.584
AGCGGAA | 2.07
GGUCUAA | -0.116
CGGGAUC | 0.589
CACCUUC | -0.769
ACUAGUG | 0.0983
GCGCACA | -0.139
UUCGGAA | -0.0187
UCACAGA | -0.376
GCAUCCC | -0.516
CCAAGGG | 0.745
CAACUGA | -0.396
AUCCGAC | -0.785
CUAGGCG | -0.0609
UUCCUAA | -0.665
UAAAGUU | -0.24
CUAGCCG | -0.659

Sequence | RNAcompete 7-mer binding Z-score
UAUGUUC | -0.646
GUAGAUG | 1.93
UUUCCGU | -0.714
UACAGUG | 0.0138
UGGCGCU | 0.0333
AUUCUUU | -0.681
UUAUCAU | -0.733
CAGGCUG | 0.28
GCUUAUC | -0.61
CCUGGCA | -0.334
AACUCAU | -0.694
UACCGGG | 0.29
GAAUUAG | 0.719
UAGUGUG | 0.446
GAGGGGC | 2.44
CAGCUAA | -0.428
ACUUAGA | -0.496
CUAAGUU | -0.649
CGAAGUC | -0.655
GAGCUGU | -0.126
UUUUCCU | -0.925
UGUUCGC | -0.604
AGCAAUU | -0.591

Sequence | RNAcompete 7-mer binding Z-score
CACACGU | -0.438
AACGCUC | -0.74
AGCAGAG | 1.36
UUUUGGU | 0.547
GGUUCGC | -0.0512
GAUAGCU | -0.0414
UAGUGCC | -0.49
CAAACUU | -0.776
AUAUCCA | -0.62
AUAGGCG | 0.781
UAUCUGA | -0.717
GGCUAUG | 0.508
CACUAAU | -0.834
UACUCUU | -0.818
AAGUGUG | 1.18
CAUUGUC | -0.711
GUGAUGA | 0.949
CUCCUUU | -0.811
GGUAUGU | 1.56
GUUACCC | -0.295
CGUAUUG | -0.285
GGUGGAC | 2.49
AAUAGAA | 0.592

Sequence | RNAcompete 7-mer binding Z-score
UGCCAUA | -0.763
UUAGUUA | -0.298
CCGAUAG | -0.623
UCCAUUU | -0.919
CGCAAUG | -0.256
CAUAGAC | -0.701
CUCAAGC | -0.636
AAGGAUU | 1.45
AUUUCUU | -0.805
AUGGUGC | 1.03
ACUUCUA | -0.867
UUCUAGU | -0.591
UGUUCUG | -0.652
GUCUAGC | -0.516
GUUCGAU | -0.545
GAUGUUU | -0.0674
UGUCUGA | -0.688
UAUGUAU | -0.392
UGGUUCU | -0.21
AGGCCAA | -0.451
CUUAAUC | -0.87
CCACGGU | -0.288
CAUUCGU | -0.685

Sequence | RNAcompete 7-mer binding Z-score
UGUUCUU | -0.88
UUGUCGU | -0.623
GCUAUGG | 0.923
GCGCUAG | 0.121
UAAUUCA | -0.639
GGGAGGU | 3.68
CGCUCCG | -0.62
GACUGAC | -0.285
ACCCGCC | -0.714
UUGUUCG | -0.467
UUCACCC | -0.646
CGAACAU | -0.503
GUAGCAG | 1.13
AUCACGA | -0.431
CGACGGC | -0.113
GCCCGUG | -0.23
UAUGAGC | -0.162
GAAACCG | -0.327
CCAUUAU | -0.915
AUAAGCU | -0.327
AGGCCUC | -0.756
UAGGCCU | -0.477
UACGUUG | -0.123

Sequence | RNAcompete 7-mer binding Z-score
CUAAGAU | -0.519
GGAGGUU | 2.51
GCCCUUA | -0.685
GUAUCAG | -0.0512
UAAUAAG | 0.0365
UUCUCUA | -0.837
GUAAUAG | 0.449
UUGGAAU | 0.699
UCACGGA | 0.144
UAUUAUC | -0.613
UAAGUCC | -0.701
UUCUACC | -0.818
CGCGCGU | -0.249
CUUAUUG | -0.785
UGUGACU | -0.217
UUGUAGU | -0.227
UGCUAUA | -0.438
UAUUUAU | -0.506
UCCACGC | -0.655
GCAGUUG | 0.384
AGCUAAA | -0.0772
GAAACGU | -0.00246
CCCGUUG | -0.565
